Measured values as given in PMC5319980, “Mutant Analysis Reveals Allosteric Regulation of ClpB Disaggregase” (Frontiers in Molecular Biosciences, 2017).

Target: the molecule itself
Test: cross-linking; 1 µM ClpB in Reaction Buffer B (50 mM HEPES pH 7.5, 25 mM KCl, 5 mM MgCl2, 2 mM DTT), 25°C, 5 min with ATPγS, then 0.1% glutaraldehyde; stopped after 2 and 10 min with 1 M Tris pH 7.5; SDS-PAGE (4-15%), Sypro Ruby staining

Row | Protein | binding result
1 | ClpB-A328L (natural protein, ClpB of E. coli with the AAA-1 subunit interface mutation A328L, made by PCR mutagenesis in pDS56; source: E. coli ΔclpB::kan cells, overproduced from pDS56, purified (Ni-IDA, size exclusion chromatography Superdex S200)) not shown | binds
2 | ClpB-A328I (natural protein, ClpB of E. coli with the AAA-1 subunit interface mutation A328I, made by PCR mutagenesis in pDS56; source: E. coli ΔclpB::kan cells, overproduced from pDS56, purified (Ni-IDA, size exclusion chromatography Superdex S200)) not shown | binds
